# Results from the supplement of paper PMC8728848.
# This is one part of the list.
# B1: CD83 (Homo sapiens) (protein)
# chain: MSRGLQLLLLSCAYSLAPATPEVKVACSEDVDLPCTAPWDPQVPYTVSWVKLLEGGEERMETPQEDHLRGQHYHQKGQNGSFDAPNERPYSLKIRNTTSCNSGTYRCTLQDPDGQRNLSGKVILRVTGCPAQRKEETFKKYRAETSEQKLISEEDLSRGSDDDDKAEPRGP
# Legend:
# Assay in all cases: glycan array binding signal (z-score within array); higher = stronger binding
# Details in all cases: glycan notation: IUPAC condensed, linker removed
# [1] = target: Fuc(a1-2)Gal
# Procedure, shortened: (§1)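 Glycan array binding is given as a within-array Z-score, which can be read as non-binding when negative. The arrays, 3228 of them, came from the Consortium for Functional Glycomics database and were retained only where the protein sequence was available. Z-scores were averaged across arrays of the same protein sequence at different concentrations or buffers and across linkers.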
# [2] = target: Fuc(a1-2)Gal(b1-3)GalNAc
# Procedure, shortened: as §1
# [3] = target: Fuc(a1-2)Gal(b1-3)GalNAc(b1-3)Gal
# Procedure, shortened: as §1
# [4] = target: Fuc(a1-2)Gal(b1-3)GalNAc(b1-3)Gal(a1-4)Gal(b1-4)Glc
# Procedure, shortened: as §1
# [5] = target: Fuc(a1-2)Gal(b1-3)GalNAc(b1-4)[Neu5Ac(a2-3)]Gal(b1-4)Glc
# Procedure, shortened: as §1
# [6] = target: Fuc(a1-2)Gal(b1-3)GlcNAc
# Procedure, shortened: as §1
# [7] = target: Fuc(a1-2)Gal(b1-3)GlcNAc(b1-3)Gal(b1-4)Glc
# Procedure, shortened: as §1
# [8] = target: Fuc(a1-2)Gal(b1-3)[Fuc(a1-4)]GlcNAc
# Procedure, shortened: as §1
# [9] = target: Fuc(a1-2)Gal(b1-4)Glc
# Procedure, shortened: as §1
# [10] = target: Fuc(a1-2)Gal(b1-4)Glc6S
# Procedure, shortened: as §1
# [11] = target: Fuc(a1-2)Gal(b1-4)GlcNAc
# Procedure, shortened: as §1
# [12] = target: Fuc(a1-2)Gal(b1-4)GlcNAc(b1-3)Gal(b1-4)GlcNAc
# Procedure, shortened: as §1
# [13] = target: Fuc(a1-2)Gal(b1-4)GlcNAc(b1-3)Gal(b1-4)GlcNAc(b1-3)Gal(b1-4)GlcNAc
# Procedure, shortened: as §1
# [14] = target: Fuc(a1-2)Gal(b1-4)GlcNAc6S
# Procedure, shortened: as §1
# [15] = target: Fuc(a1-2)Gal(b1-4)[Fuc(a1-3)]GlcNAc
# Procedure, shortened: as §1
# [16] = target: Fuc(a1-2)Gal(b1-4)[Fuc(a1-3)]GlcNAc(b1-3)Gal(b1-4)[Fuc(a1-3)]GlcNAc
# Procedure, shortened: as §1
# [17] = target: Fuc(a1-2)Gal(b1-4)[Fuc(a1-3)]GlcNAc(b1-3)Gal(b1-4)[Fuc(a1-3)]GlcNAc(b1-3)Gal(b1-4)[Fuc(a1-3)]GlcNAc
# Procedure, shortened: as §1
# [18] = target: Fuc(a1-2)Gal6S(b1-4)Glc
# Procedure, shortened: as §1
# [19] = target: Fuc(a1-2)Gal6S(b1-4)Glc6S
# Procedure, shortened: as §1
# [20] = target: Fuc(a1-2)Gal6S(b1-4)GlcNAc
# Procedure, shortened: as §1
# [21] = target: Fuc(a1-2)GlcNAc
# Procedure, shortened: as §1
# [22] = target: Fuc(a1-2)[Gal(a1-3)]Gal
# Procedure, shortened: as §1
# [23] = target: Fuc(a1-2)[Gal(a1-3)]Gal(b1-3)GlcNAc
# Procedure, shortened: as §1
# [24] = target: Fuc(a1-2)[Gal(a1-3)]Gal(b1-4)Glc
# Procedure, shortened: as §1
# [25] = target: Fuc(a1-2)[Gal(a1-3)]Gal(b1-4)GlcNAc
# Procedure, shortened: as §1
# [26] = target: Fuc(a1-2)[Gal(a1-3)]Gal(b1-4)[Fuc(a1-3)]GlcNAc
# Procedure, shortened: as §1
# [27] = target: Fuc(a1-2)[Gal(a1-4)]Gal(b1-4)GlcNAc
# Procedure, shortened: as §1
# [28] = target: Fuc(a1-2)[GalNAc(a1-3)]Gal
# Procedure, shortened: as §1
# [29] = target: Fuc(a1-2)[GalNAc(a1-3)]Gal(b1-3)GlcNAc
# Procedure, shortened: as §1
# [30] = target: Fuc(a1-2)[GalNAc(a1-3)]Gal(b1-4)Glc
# Procedure, shortened: as §1
# [31] = target: Fuc(a1-2)[GalNAc(a1-3)]Gal(b1-4)GlcNAc
# Procedure, shortened: as §1
# [32] = target: Fuc(a1-2)[GalNAc(a1-3)]Gal(b1-4)[Fuc(a1-3)]GlcNAc
# Procedure, shortened: as §1
# [33] = target: Fuc(a1-2)[GalNAc(a1-4)]Gal(b1-4)GlcNAc
# Procedure, shortened: as §1
# [34] = target: Fuc(a1-2)[GalNAc(b1-3)]Gal
# Procedure, shortened: as §1
# [35] = target: Fuc(a1-3)GlcNAc
# Procedure, shortened: as §1
# [36] = target: Fuc(a1-3)[Gal(b1-4)]Glc6S
# Procedure, shortened: as §1
# [37] = target: Fuc(a1-3)[Gal(b1-4)]GlcNAc
# Procedure, shortened: as §1
binder,measurement,setting,value
B1,glycan array binding signal (z-score),[1],-0.332
same,glycan array binding signal (z-score),[2],-0.357
same,glycan array binding signal (z-score),[3],-0.068
same,glycan array binding signal (z-score),[4],-0.048
same,glycan array binding signal (z-score),[5],-0.21
same,glycan array binding signal (z-score),[6],-0.157
same,glycan array binding signal (z-score),[7],-0.152
same,glycan array binding signal (z-score),[8],-0.388
same,glycan array binding signal (z-score),[9],-0.222
same,glycan array binding signal (z-score),[10],-0.164
same,glycan array binding signal (z-score),[11],-0.181
same,glycan array binding signal (z-score),[12],-0.172
same,glycan array binding signal (z-score),[13],-0.22
same,glycan array binding signal (z-score),[14],-0.171
same,glycan array binding signal (z-score),[15],-0.286
same,glycan array binding signal (z-score),[16],-0.099
same,glycan array binding signal (z-score),[17],-0.079
same,glycan array binding signal (z-score),[18],0.356
same,glycan array binding signal (z-score),[19],-0.062
same,glycan array binding signal (z-score),[20],-0.208
same,glycan array binding signal (z-score),[21],-0.045
same,glycan array binding signal (z-score),[22],-0.214
same,glycan array binding signal (z-score),[23],-0.151
same,glycan array binding signal (z-score),[24],-0.046
same,glycan array binding signal (z-score),[25],-0.407
same,glycan array binding signal (z-score),[26],1.45
same,glycan array binding signal (z-score),[27],-0.454
same,glycan array binding signal (z-score),[28],-0.208
same,glycan array binding signal (z-score),[29],-0.222
same,glycan array binding signal (z-score),[30],-0.276
same,glycan array binding signal (z-score),[31],-0.25
same,glycan array binding signal (z-score),[32],0.518
same,glycan array binding signal (z-score),[33],-0.343
same,glycan array binding signal (z-score),[34],-0.195
same,glycan array binding signal (z-score),[35],-0.343
same,glycan array binding signal (z-score),[36],-0.101
same,glycan array binding signal (z-score),[37],-0.318
